The target of one test is His-tagged SNX9 (UniProt Q9Y5X1). The experiment in a line: pull-down; His-SNX9 (0.45 µM) immobilised on metal affinity resin, incubated with purified untagged wild-type βarr1 or βarr1-R169E (0.15 µM by the legend; equimolar 1 µM by the methods) 2 h at 4 °C; immunoblotting; both purified.
A further test addresses His-tagged βarr1 (UniProt P49407). In words: pull-down; His-βarr1 immobilised on metal affinity (cobalt) resin, incubated with cleared HeLa cell lysate (400-600 µg) 2 h at 4 °C; 20 mM Tris-HCl pH 7.5, 150 mM NaCl, 0.1% Triton X-100; eluted with 200 mM imidazole; immunoblotting; only the target purified. Background: In western blotting, separated proteins are transferred to a membrane and probed.

Amino acid sequences for entries named in this document (tags omitted). A change or cut given only in a name is not applied to a line headed by its entry.
UniProt Q9Y5X1: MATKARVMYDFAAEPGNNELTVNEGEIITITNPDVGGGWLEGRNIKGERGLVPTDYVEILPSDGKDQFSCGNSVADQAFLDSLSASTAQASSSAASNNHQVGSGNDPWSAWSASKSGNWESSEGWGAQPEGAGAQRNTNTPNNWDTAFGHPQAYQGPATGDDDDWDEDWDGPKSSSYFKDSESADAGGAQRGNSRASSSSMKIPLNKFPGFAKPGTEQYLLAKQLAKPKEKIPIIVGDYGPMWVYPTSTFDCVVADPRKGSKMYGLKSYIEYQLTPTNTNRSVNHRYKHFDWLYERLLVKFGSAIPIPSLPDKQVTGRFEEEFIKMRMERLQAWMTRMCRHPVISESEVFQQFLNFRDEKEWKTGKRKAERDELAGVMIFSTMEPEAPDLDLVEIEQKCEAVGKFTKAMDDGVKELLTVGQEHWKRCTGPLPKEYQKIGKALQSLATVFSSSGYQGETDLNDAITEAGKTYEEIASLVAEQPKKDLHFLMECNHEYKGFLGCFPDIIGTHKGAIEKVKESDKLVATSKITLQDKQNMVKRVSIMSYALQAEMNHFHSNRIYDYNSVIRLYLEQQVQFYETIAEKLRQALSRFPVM
UniProt P49407: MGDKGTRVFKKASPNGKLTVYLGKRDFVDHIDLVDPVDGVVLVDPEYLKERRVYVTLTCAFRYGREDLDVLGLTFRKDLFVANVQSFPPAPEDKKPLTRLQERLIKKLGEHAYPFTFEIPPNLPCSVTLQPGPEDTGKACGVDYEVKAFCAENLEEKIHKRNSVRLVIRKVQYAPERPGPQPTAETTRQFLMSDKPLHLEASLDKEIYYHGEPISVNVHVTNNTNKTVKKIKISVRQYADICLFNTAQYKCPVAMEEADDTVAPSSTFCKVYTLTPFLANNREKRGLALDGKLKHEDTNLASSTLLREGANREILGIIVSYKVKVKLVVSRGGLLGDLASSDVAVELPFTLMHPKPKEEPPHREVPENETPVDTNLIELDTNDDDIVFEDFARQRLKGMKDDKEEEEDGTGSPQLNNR
UniProt Q92783: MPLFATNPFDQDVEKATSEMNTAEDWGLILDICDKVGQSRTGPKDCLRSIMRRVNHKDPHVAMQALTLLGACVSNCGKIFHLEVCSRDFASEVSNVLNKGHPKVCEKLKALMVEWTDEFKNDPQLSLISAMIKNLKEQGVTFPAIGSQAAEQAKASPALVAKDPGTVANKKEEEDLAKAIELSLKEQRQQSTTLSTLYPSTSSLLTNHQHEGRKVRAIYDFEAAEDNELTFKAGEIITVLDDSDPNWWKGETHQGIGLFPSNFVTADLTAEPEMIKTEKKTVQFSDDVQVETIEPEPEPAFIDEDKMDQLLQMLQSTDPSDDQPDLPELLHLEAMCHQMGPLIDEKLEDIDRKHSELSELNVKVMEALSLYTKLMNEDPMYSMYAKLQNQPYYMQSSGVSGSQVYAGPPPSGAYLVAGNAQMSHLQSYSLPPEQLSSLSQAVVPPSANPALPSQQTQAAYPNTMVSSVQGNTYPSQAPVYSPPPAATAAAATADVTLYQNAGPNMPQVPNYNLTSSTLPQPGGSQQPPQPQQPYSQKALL
UniProt Q9Y6K9: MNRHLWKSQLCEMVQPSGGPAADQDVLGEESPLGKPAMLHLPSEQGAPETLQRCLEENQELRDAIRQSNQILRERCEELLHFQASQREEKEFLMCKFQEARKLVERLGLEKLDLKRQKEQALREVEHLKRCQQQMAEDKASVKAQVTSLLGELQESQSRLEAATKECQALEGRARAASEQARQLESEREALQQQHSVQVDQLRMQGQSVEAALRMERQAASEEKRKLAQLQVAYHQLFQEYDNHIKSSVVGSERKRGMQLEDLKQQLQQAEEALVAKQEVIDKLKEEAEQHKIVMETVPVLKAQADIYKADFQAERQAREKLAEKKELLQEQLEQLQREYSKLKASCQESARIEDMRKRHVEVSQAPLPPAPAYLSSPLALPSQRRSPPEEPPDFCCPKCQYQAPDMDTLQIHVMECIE
UniProt Q9Y6W5: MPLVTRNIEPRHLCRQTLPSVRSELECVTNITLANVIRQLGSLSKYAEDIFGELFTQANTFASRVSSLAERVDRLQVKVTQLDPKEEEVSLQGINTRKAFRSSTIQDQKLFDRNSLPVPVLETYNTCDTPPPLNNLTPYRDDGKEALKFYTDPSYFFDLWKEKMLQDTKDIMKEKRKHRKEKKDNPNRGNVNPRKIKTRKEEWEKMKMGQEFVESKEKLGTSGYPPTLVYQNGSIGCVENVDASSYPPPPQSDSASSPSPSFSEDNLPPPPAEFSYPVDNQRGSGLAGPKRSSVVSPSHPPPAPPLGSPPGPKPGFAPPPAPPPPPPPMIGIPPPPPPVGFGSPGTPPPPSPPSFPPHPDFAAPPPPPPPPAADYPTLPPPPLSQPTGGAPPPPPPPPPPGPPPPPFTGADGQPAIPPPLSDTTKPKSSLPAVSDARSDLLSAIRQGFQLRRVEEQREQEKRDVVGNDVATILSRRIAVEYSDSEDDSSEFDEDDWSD

In a further test the target is FLAG-STAM1 (UniProt Q92783). The experiment in a line: co-IP; COS-1 cells transfected with FLAG-STAM1 and βarr1-APEX2; cleared lysates in IP buffer (50 mM Tris-HCl pH 7.5, 150 mM NaCl, 0.5% NP-40); M2 anti-FLAG antibody overnight at 4 °C, protein G agarose; immunoblotting.
Test [1] has as its target GST-tagged βarr1 (UniProt P49407). The experiment in a line: pull-down; GST-βarr1 or GST (~1 µM) immobilised on glutathione resin, incubated with HeLa cell lysate (400-600 µg) ~18 h at 4 °C; 20 mM Tris-HCl pH 7.5, 150 mM NaCl, 0.1% Triton X-100; immunoblotting; only the target purified.
The target of a further test is FLAG-tagged SNX9 (UniProt Q9Y5X1). In words: co-IP; HEK293 cells transfected with FLAG-SNX9 and wild-type βarr1 or βarr1-R169E; lysis buffer 2 (20 mM Tris-HCl pH 7.4, 150 mM NaCl, 0.1% Triton X-100); M2 anti-FLAG antibody overnight at 4 °C, protein G agarose; immunoblotting.
Test [2] deals with GST-tagged βarr1 (UniProt P49407). In words: pull-down; GST-βarr1 or GST (~1 µM) immobilised on glutathione resin, incubated with purified His-SNX9 (0.3 µM) or His-WAVE2 (0.5 µM) ~18 h at 4 °C; 20 mM Tris-HCl pH 7.5, 150 mM NaCl, 0.1% Triton X-100; immunoblotting; both purified.

Results are given in words; binding and its absence hold for the method and conditions named. For part of these data: In cells and extracts the contact can be indirect. Some binding calls cover weakened binding; strength is not graded here.

“untagged βarr1-R169E (from UniProt P49407 1-418)”: the binding entry with His-tagged SNX9 is given as “binds”. Regarding NEMO (from UniProt Q9Y6K9 1-419), the binding entry in the test with His-tagged βarr1 is recorded as “no binding”. For the substance “β-arrestin1-APEX2 (from UniProt P49407 1-418)”, in the test with FLAG-STAM1, the binding entry is given as “binds”. Take WAVE2 (from UniProt Q9Y6W5 1-498): in the test with GST-tagged βarr1 [1], the binding entry was “binds”. As for “preactivated βarr1 (R169E) (from UniProt P49407 1-418)”, the binding entry with FLAG-tagged SNX9 is listed as “binds”. In the case of “His-tagged WAVE2 (from UniProt Q9Y6W5 1-498)”, the binding result with GST-tagged βarr1 [2] is on record as “binds”.
